Measured values as given in the RNAGym collection of RNA variant scans (doi:10.7554/elife.90254).
Read counts are not given, so values of variants with three or more changes are uncertain.

B1: LINE1-mini (parent)
chain: GGCAGAGCUCAACACAGCGUGGCAAAGUGGCUGUGGCUAGACUGCC

Variants of: B1
Assay: self-cleavage, relative activity (ratio to wild type); higher = more cleavage; in vitro, sequencing; the parent is a self-cleaving ribozyme

Variant	self-cleavage
C3U U20A U34A A39U	0.07
C3U G7A G33A U34C	0.17
C3U C23G G27A	0.33
C3U U28A C37G	0.04
A4C A12U G33U G35A	0
C3U G5U G7A	0.2
C3U G7U U43C G44A	0.03
C3U G27U G40C	0.07
C3U G27U A41C	0.05
C3U G5U G29U U38A	0.51
C3U G27A C42G	0.02
C3U U20A U28G C45A	0.04
C3U G5A C8A U20C G33A U38C	0.17
C3U G17C C18A	0.06
C3U G5U G30C C45G	0.08
A4C A12G G40C	0.44
C3U U28G G33A	0.03
C3U U9G G36A A39G U43G C45U	2.12
A4C A14U G27U G44C	0.03
C3U G7C C8U	0.84
C3U C23U U38G	0.03

Variant	self-cleavage
C3U G17C G27C	0
C3U G17U U43G	0.02
A4C A16U A25U	0.21
C3U U9A G22A	0.26
C3U U28G G36U	0.08
C3U G7C U20A	0.16
A4C A11U A39G	0
A4C A6U G7A A16U G21U G29U	0.23
C3U U28C C31G	0.02
C3U C31A A39U C46A	0.01
C3U G5A G7U C18G A25U	0.17
A4C A12C G17A C18U G21U G35A	0.06
C3U G17A U34A	0.04
C3U G19A G21U G36A	0.05
C3U G21U G27U	0.26
A4C A11U A39G C42U	0.04
C3U G17C C31U G36U	0.07
A4C A6U G19A C23A C31A	0.01
A4C A12U A26C U43A C46A	0.03
C3U G29C U38C U43C	0.02
C3U G36A G44A	0.04

Variant	self-cleavage
C3U U9A A14U G30U C31A G40U G44U	0.05
C3U U20A G44C	0.25
C3U G19U G27U U43A	0.03
A4C A11C G30A C37G	0.02
C3U G7A U9A C37U G44A	0.04
C3U G7A U32A C37U	0.14
C3U G7C C23A G27U G35C G44A	0.02
A4C A14U A26U G30A	0.44
A4C A14C G22C G30C G35A C37G	0.1
C3U G17C G36A G44A	0.05
C3U U20C U34A G35A	0.02
C3U G44U C45A	0.03
C3U U9G A12U G19C U20C A39G	0.02
C3U G29A G33C	0.03
C3U U9G C18G A24U	0.11
C3U G5U G36C	0.03
A4C A6C G7C A24G G44U	0.14
C3U U9C C15G G21C G35C	0.02
A4C A14C G21U G29C G30U A39G	0.02
C3U C23U G27C	0.16
C3U G19U C23A	0.1

Variant	self-cleavage
C3U G30U C45G	1.15
C3U G7C C8A U32A G40U	0.31
C3U G29A G44A	0.32
C3U G7U G29U U32C	0.12
C3U U9G A16U C23U	0.03
C3U G29U G40A	0.11
C3U G29U G40U	0.04
C3U G19A A25C U32A U38A	0.04
C3U G22U U34A	0.14
A4C A6G U32G U43A	0.19
C3U G5C A24G	0.18
C3U G33C U43C G44A	0.04
A4C A6U A14C	0.03
C3U G27A C31A	0.26
C3U G29C C31G G44C	0.04
C3U U20A G29C G44U	0.1
C3U U28C C45A	0.09
A4C A14U G22A A39C	0.09
C3U C42G C45G	0
C3U C42U C46U	0.09
C3U U28A C31U C46A	0.03
